Data on 1 molecule can be found in PMC10191332 (2023).

This test has as its target recombinant His-gH/gL (HCMV), purified (HCMV, biotinylated (sulfo-LC-LC-biotin kit) | biotinylated (sulfo-LC-LC-biotin kit)). As to the kind of experiment: BLI.

B1: EphA2 extracellular domain ([…]), purified (domain or fragment)
chain: not shown
As for B1, the koff is 0.00146 s⁻¹.
